Reference: PubChem BioAssay AID463173 (ICCB-Longwood Screening Facility, Harvard Medical School, 2010)
The campaign covered roughly 52,000 compounds. About 1,700 (3.3%) were called active. Rule as the data show it: active = survival mostly below about 52% (no sharp cut-off); inactive = mostly above about 56%. The list shows a part of the results.

Tested on: Wild type
Assay: growth inhibition of S. aureus wild type versus tarO mutant, primary screen, teichoic acid synthesis inhibitors, RN4220, OD600 (AID 463173)
Details: S. aureus RN4220 wild type/DeltatarO growth, OD600, 18 h, stronger effect = lower value, screened at 18.75 µg/mL (by protocol)

SMILES | survival
NS(=O)(=O)c1ccc(S(=O)(=O)N(Cc2ccccc2F)CC2CCCO2)cc1 (centres undefined) | inactive: 107%
CCOC(=O)c1c(-c2ccc(C)cc2)csc1NC(=O)c1cc(=O)c2cc(C)cc(C)c2o1 | inactive: 114%
COc1ccc(-n2c(SCc3ccccc3F)nc3c([nH]c4ccccc43)c2=O)cc1OC | inactive: 54%
COc1cc(NC(=O)c2c3c(nc4ccccc24)C(=O)N(C2CCCCC2)C3)cc(OC)c1 | inactive: 121%
CCOc1ccc(-c2nonc2NC(=O)c2oc3ccc(C)cc3c2C)cc1OCC | inactive: 89%
Cc1ccc(S(=O)(=O)Cc2nc(-c3ccc(C(=O)NCc4ccccc4C)cc3)oc2C)cc1 | inactive: 73%
COc1ccc(Cn2ccn(Cc3cccc(Cl)c3)c(=O)c2=O)cc1 | inactive: 111%
CC(=O)c1ccc(NC(=O)C2=CC(c3ccc(C)cc3)=NS(=O)(=O)N2C)cc1 | inactive: 82%
CCCn1cc(S(=O)(=O)c2ccc(OC)cc2)c(=O)c2cc(F)c(N3CCCC(C)C3)cc21 (centres undefined) | inactive: 71%
Cc1ccc(C(=O)Nc2nc3nc(-c4ccccc4)cc(=O)n3[nH]2)cc1 | inactive: 131%
O=C(COc1ccccc1F)Nc1c(C(=O)Nc2cccc(F)c2)oc2ccccc12 | inactive: 88%
O=C(Nc1cc(-c2ccccc2F)nn1-c1ccccc1)c1ccccc1Br | inactive: 72%
CCCCCOC(=O)CSc1nc2sc3c(c2c(=O)n1-c1ccccc1)CC(C)(CC)OC3 (centres undefined) | inactive: 48%
O=C(CSc1nc2c(oc3ccccc32)c(=O)n1Cc1ccco1)Nc1ccccc1 | inactive: 133%
Cc1ccc(CNC(=O)CCS(=O)(=O)c2cc3c(cc2C)NC(=O)CO3)cc1 | inactive: 87%
O=C(O)CC1S/C(=N/N=C2CCCC2)NC1=O (centres undefined) | inactive: 102%
Cc1cccc(CSc2nc(-c3cccc(C)c3)nc3c2Cc2c(CO)cnc(C)c2O3)c1 | inactive: 87%
Cc1ccc(CN2CCCN(Cc3c(C)cc(C)cc3C)S2(=O)=O)cc1 | inactive: 63%
CCCSC1=NC2(CCN(C(=O)NC3CCCCC3)CC2)N=C1c1ccc(Cl)cc1 | inactive: 58%
COC(=O)CC(=O)CSc1nc(C)cc(C)c1C#N | inactive: 91%
COc1ccc(C)cc1NC(=O)COCc1cc(-c2ccc(F)cc2)on1 | inactive: 79%
CC(C)(C)C(=O)OCc1cc(=O)n2nc(C3CC3)sc2n1 | inactive: 89%
CCCN(CCC)c1nn2c(=O)c(C(=O)NCc3cc(Br)ccc3OC)cnc2s1 | inactive: 82%

SMILES | survival
CCOC(=O)c1cc(-c2ccccc2)n(CC(=O)Nc2ccc(CC)cc2)c1C | inactive: 95%
COc1cc(Cl)c(C)cc1NC(=O)Cn1cc(S(=O)(=O)N2CCC(C)CC2)c2ccccc2c1=O | inactive: 128%
Cc1nn(Cc2noc(C(=O)NC(C)c3ccccc3)n2)c(C)c1Br (centres undefined) | inactive: 72%
Cc1ccc(N2CCN(S(=O)(=O)c3c(C)[nH]c(=O)[nH]c3=O)CC2C)cc1 (centres undefined) | inactive: 78%
COc1ccc(OC)c(CCNC(=O)CCn2c(=O)c3cccn3c3ccc(F)cc32)c1 | inactive: 87%
Cc1cccc(S(=O)(=O)c2cn(C)c3cc(N4CCN(c5ccc(F)cc5)CC4)c(F)cc3c2=O)c1 | inactive: 82%
CC(C)c1ccc(NC(=O)CSC2=Nc3ccccc3C3=NC(CCC(=O)NCc4ccco4)C(=O)N23)cc1 (centres undefined) | inactive: 77%
CCCCNC(=O)c1ccccc1NC(=O)CN(c1ccccc1)S(=O)(=O)N(C)C | inactive: 91%
CCN(CC)c1ccc(NC(=O)CNCC2CCCCC2)c(C)c1 | inactive: 103%
O=C(CSc1nc(=O)n(Cc2ccco2)c2c1CCC2)Nc1ccccc1C(F)(F)F | inactive: 138%
Cc1ccc2c(=O)cc(C(=O)Nc3ccc(S(=O)(=O)N4CCCCCC4)cc3)oc2c1 | inactive: 106%
CCN(Cc1ccccc1)C(=O)Cn1c(=O)n(-c2ccc(Cl)cc2)c(=O)c2c(C)c(C)sc21 | inactive: 92%
Cc1ccc(Cl)cc1N1CCN(C(=O)c2cc(S(=O)(=O)N3CCCC3)c[nH]2)CC1 | inactive: 77%
CCc1ccc(NC(=O)C2CCCN(S(=O)(=O)c3ccc(F)cc3)C2)cc1 (centres undefined) | inactive: 75%
CCOC(=O)CNC(c1ccccc1)c1cc(Br)ccc1NC(=O)c1cccc(Cl)c1 (centres undefined) | inactive: 66%
CCc1nnc(SCC(=O)N(CC)c2ccccc2)c2cc3oc(C)cc3n12 | inactive: 86%
CC(=O)N1CCCc2cc(S(=O)(=O)N3CCC(C(=O)NCc4ccccc4)CC3)ccc21 | inactive: 68%
Cc1ccc(CN2CCSc3ccc(C(=O)Nc4ccc(C)cc4)cc32)cc1 | inactive: 124%
CCOc1ccc(OCC)c(NC(=O)c2cnc(SC)nc2-c2ccccc2)c1 | active: 0%
Cc1ccc(C)c(NC(=O)CSc2nc3c([nH]c4ccccc43)c(=O)n2-c2ccc(F)cc2)c1 | active: 0%
COc1ccc(S(=O)(=O)NCCNc2nc3cc(C)cc(C)c3cc2C#N)cc1 | inactive: 102%
Cc1ccc(Cn2c(=O)n(Cc3ccco3)c(=O)c3oc4ccccc4c32)cc1 | inactive: 123%
Cc1ccc(C)c(Cn2c(=O)n(-c3ccc(Cl)cc3)c(=O)c3c(C)c(C)sc32)c1 | inactive: 73%

SMILES | survival
COc1ccc(CC(=O)NCC(c2ccc(Cl)cc2)N2CCOCC2)cc1 (centres undefined) | inactive: 76%
Cc1ccc(S(=O)(=O)c2nnn3c2nc(NC2CCCCC2)c2sccc23)cc1 | inactive: 105%
CN(C)S(=O)(=O)c1ccc2c(c1)nnn2CCNC(=O)Nc1ccc(Cl)cc1 | inactive: 55%
Cc1ccc(C)c(Oc2nc3c(c(=O)n(C)c(=O)n3C)n2Cc2ccccc2)c1 | inactive: 73%
Cc1ccc(Cc2cn3cc(-c4ccccc4)nc3s2)cc1 | inactive: 94%
CCOc1ccc(NC(=O)NCCCN2CCN(c3ccc(OC)cc3)CC2)cc1 | inactive: 87%
O=C(c1ccc(CSc2nc3ccncc3n2Cc2ccccc2F)cc1)N1CCCCC1 | inactive: 83%
Cc1c(CCC(=O)NCCc2ccccc2F)c(=O)oc2cc(O)ccc12 | inactive: 81%
CCC(C)NS(=O)(=O)c1ccc(S(=O)(=O)N(Cc2ccc(C)o2)C2CCCC2)cc1 (centres undefined) | inactive: 135%
CCOc1ccccc1Nc1sc(C(=O)c2ccc(Cl)cc2)c(N)c1C#N | inactive: 73%
CN(C)c1ccc(/C=C(\C#N)c2nc3ccccc3c(=O)[nH]2)cc1 | inactive: 97%
O=C(NCc1ccc(F)cc1)c1cccc(N2CCCS2(=O)=O)c1 | inactive: 74%
O=C(NCCc1ccccc1)c1cc(-c2ccccc2)nc2n[nH]c(-c3ccccc3)c12 | inactive: 56%
Cc1ccccc1NC(=O)Cn1c(=O)n(Cc2ccco2)c(=O)c2cccnc21 | inactive: 76%
Cc1ccc(-c2cc(C(=O)NCCc3ccccc3)c3ccccc3n2)cc1C | inactive: 78%
C=CCn1c(C#N)c(N)sc1=N | inactive: 106%
CCc1ccc2c(c1)c(=O)c(C(=O)c1ccc(C)cc1)cn2CC(=O)Nc1ccc2c(c1)OCCO2 | inactive: 83%
CCN1CCN(CC2CCCCC2)CC1 | inactive: 102%
CC(C)c1ccc(NC(=O)CNC(=O)Cn2ccc3ccccc3c2=O)cc1 | inactive: 73%
CN(C(=S)S)C1CCS(=O)(=O)C1 (centres undefined) | inactive: 100%
Cc1ccc(Cl)cc1NC(=O)C1CCCN(S(=O)(=O)c2c(C)noc2/C=C/N(C)C)C1 (centres undefined) | inactive: 64%
COC(=O)c1c(NC(=O)CCCOc2ccccc2)sc2c1CCC(C)C2 (centres undefined) | inactive: 20%
CCC1(CC)Cc2ccccc2C(=C(C#N)C#N)N1 | inactive: 104%

SMILES | survival
CC1CCCN(S(=O)(=O)c2ccc(S(=O)(=O)N(Cc3cccs3)Cc3cccs3)cc2)C1 (centres undefined) | inactive: 112%
CCC(=O)N1CCc2cc(S(=O)(=O)CCC(=O)N(C)c3ccc(OC)cc3)ccc21 | inactive: 89%
O=c1[nH]ncc(NCCN2CCOCC2)c1Cl | inactive: 77%
Fc1ccc(C2=NC(c3cccc(C(F)(F)F)c3)=Nc3ccccc3N2)cc1 | inactive: 71%
COc1cc2c(cc1OC)C(c1cc3cc4c(cc3[nH]c1=O)OCO4)N(C(=O)C1CCC1)CC2 (centres undefined) | inactive: 116%
Cc1ccc2nc(/C(C#N)=C/c3ccc(-c4ccc(F)cc4F)o3)[nH]c2c1 | inactive: 26%
Cc1cc(Nc2cccc(Cl)c2)nc2ccc(NC(=O)c3ccc(F)cc3Cl)cc12 | inactive: 75%
O=C(Nc1ccccc1C(=O)OCc1cc(=O)n2ccsc2n1)c1cccc(F)c1 | inactive: 120%
COc1ccc(CCCc2nnc(SCC(=O)Nc3ccc(C)c(C)c3)o2)cc1 | inactive: 66%
CCc1ccc(S(=O)(=O)c2cn(C)c3cc(N4CCN(CC)CC4)c(F)cc3c2=O)cc1 | inactive: 70%
Cc1cc(C)c2c(CC(=O)Nc3nnc(CC(C)C)s3)coc2c1 | inactive: 89%
CC(C)NS(=O)(=O)c1ccc(OCC(=O)N2CCN(c3ccccc3F)CC2)cc1 | inactive: 89%
COCCN1C(=O)C2C3c4ccccc4C(c4ccccc43)C2C1=O (centres undefined) | inactive: 98%
CSc1cccc(NC(=O)c2ccc3c(c2)c(C)c(C)n3Cc2ccc(F)cc2)c1 | inactive: 73%
Cc1ccc(CN2CCC(CNC(=O)Nc3c(C)cccc3C)C2)cc1 (centres undefined) | inactive: 94%
COc1ccccc1-c1c(C)nn2c(C(F)(F)F)cc(-c3ccccc3)nc12 | inactive: 39%
O=S1(=O)N=C(Nc2cccc(C(F)(F)F)c2)c2ccccc21 | inactive: 83%
O=C(c1ccc(CS(=O)c2ccccc2Cl)o1)N1CCN(c2ccccc2F)CC1 (centres undefined) | inactive: 80%
COc1cccc(C(=O)N(Cc2cccc(Cl)c2)Cc2ccco2)c1 | inactive: 75%
O=C(CCC1N=C2c3ccccc3N=C(SCc3cccc(Cl)c3)N2C1=O)NCc1cccs1 (centres undefined) | inactive: 75%
